# Reference: article PMC4336329 (PLoS ONE, 2015)
# About 2,200 (0.71%) of roughly 310,000 compounds showed an effect of 50% or more. The effect is printed as a negative number. The list shows a part of the results.
# Target: human ether-à-go-go-related gene (hERG) potassium channel (human, UniProt Q12809)
# Assay: primary screen, population patch clamp on CHO cells stably expressing hERG
# Chain of human ether-à-go-go-related gene (hERG) potassium channel (Q12809 whole entry, looked up): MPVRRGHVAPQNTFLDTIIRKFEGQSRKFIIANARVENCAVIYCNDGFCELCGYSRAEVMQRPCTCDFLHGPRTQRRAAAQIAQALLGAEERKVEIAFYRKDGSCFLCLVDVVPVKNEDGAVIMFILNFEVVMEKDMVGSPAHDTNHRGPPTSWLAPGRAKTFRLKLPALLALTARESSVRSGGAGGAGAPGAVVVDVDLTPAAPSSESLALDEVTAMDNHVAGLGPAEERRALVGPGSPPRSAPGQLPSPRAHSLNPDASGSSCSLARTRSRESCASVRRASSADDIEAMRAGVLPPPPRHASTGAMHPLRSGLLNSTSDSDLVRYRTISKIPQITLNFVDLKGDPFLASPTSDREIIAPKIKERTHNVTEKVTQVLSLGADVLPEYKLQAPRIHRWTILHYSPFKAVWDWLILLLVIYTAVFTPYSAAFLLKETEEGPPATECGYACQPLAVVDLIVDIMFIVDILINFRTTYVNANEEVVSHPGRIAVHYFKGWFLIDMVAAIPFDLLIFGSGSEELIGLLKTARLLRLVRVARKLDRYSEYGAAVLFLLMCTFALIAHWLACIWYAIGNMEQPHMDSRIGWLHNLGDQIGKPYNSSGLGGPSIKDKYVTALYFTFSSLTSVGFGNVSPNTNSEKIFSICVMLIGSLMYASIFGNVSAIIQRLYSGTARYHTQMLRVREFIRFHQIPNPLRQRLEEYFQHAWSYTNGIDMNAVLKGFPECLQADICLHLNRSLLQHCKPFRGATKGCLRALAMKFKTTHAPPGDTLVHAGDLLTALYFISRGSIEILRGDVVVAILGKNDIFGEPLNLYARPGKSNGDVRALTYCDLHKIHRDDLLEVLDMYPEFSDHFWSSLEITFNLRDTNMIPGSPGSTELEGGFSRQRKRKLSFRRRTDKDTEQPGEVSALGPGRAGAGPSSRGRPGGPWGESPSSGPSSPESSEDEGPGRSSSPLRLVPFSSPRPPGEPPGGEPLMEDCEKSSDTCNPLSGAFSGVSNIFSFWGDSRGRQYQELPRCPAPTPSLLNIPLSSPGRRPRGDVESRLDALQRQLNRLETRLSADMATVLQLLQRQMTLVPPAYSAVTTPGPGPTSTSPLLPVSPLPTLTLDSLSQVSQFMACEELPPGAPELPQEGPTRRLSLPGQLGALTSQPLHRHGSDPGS
row,Compound,"hERG current change (%, negative = inhibition) at 1uM"
1,O=C(NCC(=O)N1CCCCC1)c1sc2ccccc2c1Cl,0.939%
2,CCn1cc(C(=O)OCC(=O)N(C)C2CCS(=O)(=O)C2)c(=O)c2ccc(C)nc21 (stereo not shown),2.89%
3,O=C(COC(=O)c1ccccc1Sc1ccc(C(F)(F)F)cc1[N+](=O)[O-])NC(=O)NC1CCCC1,7.56%
4,CN(C)CCOC(C1CCCCC1)C1CCCCC1.Cl,4.97%
5,COc1ccc(N(CC(=O)N2CCc3ccccc32)S(=O)(=O)c2c(C)nn(C)c2C)cc1,9.12%
6,C=C(C)COc1ccc(-c2nc(N)ncc2Oc2ccc(OC)cc2)c(O)c1,-5.45%
7,O=C(COC(=O)[C@@H]1CCCN1S(=O)(=O)c1ccccc1F)NCc1ccc2c(c1)OCO2,11%
8,CCOC(=O)c1[nH]c(=O)[nH]c1CSc1nc(C)cc(C)n1,6.36%
9,CN(C)S(=O)(=O)c1ccc(C(=O)OCC2COC(C)(C)O2)cc1 (stereo not shown),15.6%
10,Nn1c(SCc2ccccc2F)nnc1-c1ccccn1,5.37%
11,CCN(CC)c1ccc(C(=O)OCC(=O)N2CCCC2)cc1,8%
12,COc1ccc(CC2(CO)CCN(Cc3cnn(C)c3C)CC2)cc1,6.81%
13,CCC(C)(C)n1nnnc1C(c1cc2cc(OC)ccc2[nH]c1=O)N1CCc2ccccc21 (stereo not shown),-2.65%
14,CCCCC1=CC2=C(c3ccco3)C(=O)C(C)(OC(=O)c3ccc(OC)cc3)C(=O)C2=CN1Cc1ccco1 (stereo not shown),3.63%
15,COc1ccc(N(C(C)=O)c2nc(C)cc(C)c2C#N)c(OC)c1,14%
16,Cc1ccccc1C(=O)Nc1ccccc1NC(=O)c1ccccc1C,13.9%
17,O=C(Nc1cccn(Cc2c(Cl)cccc2Cl)c1=O)c1c(Cl)cccc1Cl,0.712%
18,CC1CCCCC1n1c(-c2cccnc2)n[nH]c1=S (stereo not shown),7.49%
19,Cc1ccc2c(C(=O)CNc3nncs3)c(C)[nH]c2c1,13.6%
20,Cc1ccc(C(=O)NCCC(=O)NCc2ccco2)cc1,13.8%
21,CCCCC1OC2(C)OC(=N)C1(C#N)C(C#N)(C#N)C2c1ccccc1 (stereo not shown),0.781%
22,COc1cc(NC(=O)c2cccs2)c(C(=O)OCC(=O)NCc2ccccc2)cc1OC,11.9%

row,Compound,"hERG current change (%, negative = inhibition) at 1uM"
1,CC1SC2(CN3CCC2CC3)NC1=O (stereo not shown),12.8%
2,CN(Cc1ccc(Cl)c(Cl)c1)C(=O)CN1C(=O)NC2(CCCC2)C1=O,12%
3,Cc1nc(-c2coc3c(CN(C)C)c(O)ccc3c2=O)cs1,13.9%
4,COc1ccc(CC(=O)Nc2ncc([N+](=O)[O-])s2)cc1OC,18.8%
5,CCN1CCN(C(=O)C2=CC(c3ccc(C)cc3)=NS(=O)(=O)N2C)CC1,8.22%
6,COc1ccc(CCNC(=O)C2CCN(S(C)(=O)=O)CC2)cc1OC,14.4%
7,COc1cccc(C=Nc2cccc3c(=O)[nH][nH]c(=O)c23)c1O,2.18%
8,CNC(=S)N/N=C(\C)c1ccc2c(c1)OCO2,15.1%
9,CCOC(=O)C1CCCN(S(=O)(=O)c2ccc(OC)c3ccccc23)C1 (stereo not shown),2.96%
10,CN1CCN(NS(=O)(=O)c2cccs2)CC1,7.32%
11,Cc1ccccc1-n1nnnc1SC(C)C(=O)Nc1ccc(N2CCN(C)CC2)cc1 (stereo not shown),3.69%
12,CCOc1ccccc1CNS(=O)(=O)c1ccc(-c2cnc(C3CC3)o2)cc1,-7.07%
13,Cc1ccc(C)c(NC(=S)N2CCCCCC2)c1,10.6%
14,CC(=O)Nc1cccc(C(=O)NNC(=O)c2ccccc2-n2cccc2)c1,10.6%
15,COc1ccc(-c2nnc3sc(-c4ccccn4)nn23)cc1,11.2%
16,NC(=NCCc1ccccc1)NS(=O)(=O)c1ccccc1,13.3%
17,Cc1cc(C#N)c(C)n1-c1cc(C(F)(F)F)ccc1N1CCOCC1,3.54%
18,COc1cc(C2(c3ccc(O)c(OC)c3)C(=O)N(C)c3ccc(C)cc32)ccc1O,3.42%
19,COc1ccc(OC2C(=O)N(c3cc(C)ccc3C)C2c2ccc(OC)c(OC)c2)cc1 (stereo not shown),10.3%
20,Cc1ccc(-n2nc3c(=O)n(CC(=O)NCCc4ccc(Cl)cc4)nc(C)c3c2C)cc1,18.2%
21,Cc1cc(C)n(-c2nc3ccccc3c(=O)n2OCC(=O)N(C)C)n1,8.4%
22,COc1ccc(OC)c(NC(=O)CCC(=O)Oc2ccc(C)cc2)c1,12.6%

row,Compound,"hERG current change (%, negative = inhibition) at 1uM"
1,Cc1nnc(NC(=O)c2cccc(S(=O)(=O)N(C)c3cccc(Cl)c3)c2)s1,6.37%
2,CN(Cc1ccc(OC(F)F)cc1)C(=O)c1ccc(S(=O)(=O)N(C)c2ccccc2)cc1,-19.2%
3,C/C(=N/NC(=O)c1ccc(C)s1)c1cccnc1,1.48%
4,O=[N+]([O-])c1ccccc1CN1CCN(Cc2ccc3ccccc3c2)CC1,12.2%
5,CC1CCN(CCCNC(=O)c2ccc(CSCc3cccc(Cl)c3)o2)CC1,-62.4%
6,Cc1ccc(-c2nn(C)c(=O)c3ccccc23)cc1S(=O)(=O)N1CCCC1,-1.06%
7,CCC(C)N1C(=O)CCC1C(=O)NCc1ccc2c(c1)OCO2 (stereo not shown),12.6%
8,CCNC(=O)Cc1c(OC)ccc2cc(Br)ccc12,8.61%
9,COCCC(=O)N1CCCC(CCC(=O)NCc2ccc(F)c(F)c2)C1 (stereo not shown),8.27%
10,COCCCNC(=O)/C(C#N)=C/c1c(N2CCN(c3ccc(OC)cc3)CC2)nc2c(C)cccn2c1=O,13.1%
11,COc1cc(/C=N/N2CCCCC2)cc(OC)c1O.O=P(O)(O)O,10.9%
12,CCOC(=O)C1=C(CCc2ccccc2)NC(=O)NC1c1ccc(Br)cc1 (stereo not shown),15.8%
13,CCOC(=O)c1cc(-c2ccccc2)sc1NC(=O)C(C)OC(=O)c1cccnc1OCC (stereo not shown),-1.5%
14,COc1ccccc1C(=O)Nc1ccnn1C1CCN(Cc2cn(C)c3ccccc23)CC1,-74.9%
15,Cc1ccc(-n2nc(C)c3c2OC(N)=C(C#N)C3c2ccoc2)cc1 (stereo not shown),8.97%
16,O=C(Nc1ccon1)C1CCN(S(=O)(=O)c2cccs2)CC1,-4.01%
17,Brc1ccccc1OCCN1CCOCC1.O=C(O)C(=O)O,12.4%
18,Cc1nc(CNS(=O)(=O)c2cccnc2)cs1,3.78%
19,CCOc1ccc(NC(=O)C(=O)N/N=C/c2ccccc2F)cc1,11.5%
20,CSCC[C@H](NC(=O)OC(C)(C)C)c1nnc(SCC(=O)Nc2ccc(C)cc2C)o1,-5.16%
21,COc1ccc(OC)c(S(=O)(=O)n2cccn2)c1,15.5%
22,COc1cc(/C=N/NC(=O)c2cccc([N+](=O)[O-])c2)ccc1OC(=O)c1ccco1,6.03%

row,Compound,"hERG current change (%, negative = inhibition) at 1uM"
1,CCCCN(CCCC)CCn1cnc2c([nH]c3ccc(OC)cc32)c1=O,-0.941%
2,CN(CC#CC1(O)c2ccccc2-c2ccccc21)Cc1ccccc1,0.0211%
3,CCCn1c(O)c2ccc(C(=O)N=NC(=O)c3cccnc3)cc2c1O,5.56%
4,CCN(c1cccc(C)c1)S(=O)(=O)c1ccc2c(c1)oc(=O)n2C,8.78%
5,COc1ccc(CN(C)Cc2nc(Cc3ccccc3Cl)no2)cc1OC,8.22%
6,COc1ccc(S(=O)(=O)N2CCOCC2)cc1C(=O)N(C)Cc1ccccc1F,1.94%
7,CC(=O)c1c(C)[nH]c(C(=O)CSc2nnc(-c3ccco3)o2)c1C,6.36%
8,O=C(Nc1cc(Cl)ccc1N1CCOCC1)c1ccc2c(c1)OCCO2,-2.5%
9,CCOC(=O)N1CCC(NC(=O)CCN2C(=O)COc3ccccc32)CC1,10%
10,O=C(NCC(=O)N1CCN(c2ccc(C(F)(F)F)cn2)CC1)c1ccc(Br)o1,-34%
11,COc1ccc(NC(=S)Nc2ccccn2)cc1,5.63%
12,O=C(c1cccc(Br)c1)N1CCN(C(=O)N2CCCCC2)CC1,7.44%
13,CCc1ccccc1NS(=O)(=O)c1c(C(=O)N2CCCCCC2)c(C)n(C)c1C,0.158%
14,COc1cccc(NC(=O)CCC2CCN(C(=O)c3c(C)noc3C)CC2)c1,17.9%
15,CC1=NN(c2nc(-c3ccccc3)cs2)C(=O)C1,16.5%
16,CC1CCCN(C(=O)NC2CC(=O)N(c3ccc4c(c3)OCCO4)C2)C1 (stereo not shown),8.65%
17,CC1=NN(c2ccccc2)C(=O)/C1=C\c1cc(C)n(-c2ccccc2)c1C,10.2%
18,Cc1ccc(C)c(NC(=O)C(Sc2nc3ccccc3c(=O)n2CC(C)C)c2ccccc2)c1 (stereo not shown),6.59%
19,O=C(Nc1nc(-c2ccccc2)c(-c2ccccc2)o1)c1ccc(F)cc1,13.5%
20,NC(=O)CSc1nccn1Cc1ccc2c(c1)OCO2,12.3%
21,COc1ccc(OC)c(-c2nc(C(=O)NC3CCN(Cc4ccccc4)CC3)cc3c2[nH]c2ccccc23)c1,7.39%
22,O=C(CSc1nnc(-c2ccc(F)cc2)c2ccccc12)Nc1c(F)cccc1F,-1.41%
